Results reported in PubChem BioAssay AID504832 (National Center for Advancing Translational Sciences (NCATS), 2011).
In all, about 310,000 compounds went through this assay and about 18,000 (5.8%) were called active. Inconclusive means that the source gave no clear call. Such entries were picked first, then a sample of the others. The call rests on the fitted dose curve; in most records, active means well fitted inhibition curve with a large enough effect; inconclusive means small, poorly fitted or top-dose-only effect, or another doubt; inactive means no such curve, though single readings can be large or run the other way. No potency is given beside an inconclusive call; the fits are too rough.

Assay: Primary qHTS for delayed death inhibitors of the malarial parasite plastid, 48 hour incubation
Details: P. falciparum luciferase growth in erythrocytes; series mostly up to 28.7 µM
How it was run: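 Read-out is firefly luciferase luminescence from an integrated reporter in P. falciparum, so falling signal marks reduced parasite growth. Infected erythrocytes were at 2% hematocrit and 0.1% parasitemia (final) in Albumax-supplemented RPMI 1640.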
On the % scale 0 is the no-effect control and ±100 the full control effect; potency means the concentration at half of the fitted maximal effect; tags describe the fitted curve by direction and shape.

SMILES	Potency	activity change, negative = inhibition
NC(=O)COC(=O)c1ccccc1Oc1ccccc1	inactive	–
O=C1NC2=C(C(=O)CCC2)C(c2ccccc2Cl)N1 (stereo unspecified)	–	inactive: -19.8% [at 0.00184 µM]
COc1cc(C2c3cc4c(cc3C(O[C@@H]3OC5COC(c6cccs6)OC5C(O)C3O)C3COC(=O)C23)OCO4)cc(OC)c1O (stereo partly specified)	active: 0.536 µM	–
CCCN1CC23C=CC(O2)C(C(=O)O)C3C1=O (stereo unspecified)	inactive	–
CCOc1ccccc1NC(=S)N(CCCN1CCOCC1)Cc1cn(C)c2ccccc12	active: 11.7 µM	–
NC(=O)C1CCN(C(=O)c2ccc3c(=O)n(Cc4ccco4)c(SCC(=O)c4ccccc4)nc3c2)CC1	inactive	–
CC(C)CN(C(=O)CN1C(=O)NC2(CCc3ccccc32)C1=O)C1CCS(=O)(=O)C1 (stereo unspecified)	inconclusive [inhibitor, single point]	–
O=C(COn1nnc2ccccc21)NCC1CCCCC1	inactive	–
COc1ccc(CCN(Cc2cc3cc(C)ccc3[nH]c2=O)C(=O)N2CCCC2)cc1OC	inconclusive [inhibitor, partial curve, poor fit]	–
CN(C)C(=O)C1Cc2ccccc2CN1S(=O)(=O)c1ccc(F)cc1 (stereo unspecified)	inactive	–
c1ccc2c(c1)nc(Nc1ccc3c(c1)OCO3)c1nnnn12	active: 10.4 µM	–
O=C(CCC1CCCN(C(=O)CCCc2ccccc2)C1)N1CCN(c2ccccn2)CC1 (stereo unspecified)	inconclusive [inhibitor, partial curve]	–
c1cc2c3c(cccc3c1)C(N1CCCCC1)=N2	inconclusive [inhibitor, single point]	–
O=C(COC(=O)c1ccc(Cl)c(S(=O)(=O)N2CCCC2)c1)NCc1cccs1	inconclusive [inhibitor, single point]	–
CSc1ccccc1C(=O)N1CCCC(CNC(=O)c2ccc(F)cc2)C1 (stereo unspecified)	inactive	–
Nc1c(C(=O)c2ccccc2)sc2nsc(SCCN3CCCC3)c12	inconclusive [inhibitor, partial curve, poor fit]	–
COc1ccc(C2(c3ccc(OC)cc3)NC(=O)N(CC(=O)Nc3ccc(C(=O)N(C)C)cc3)C2=O)cc1	inconclusive [inhibitor, single point]	–
O=C1NC2(CCN(Cc3ccccc3)CC2)Oc2ccccc21	inconclusive [inhibitor, single point]	–
Cc1ccccc1NC(=O)c1c(C)nc(SCC(=O)OCc2ccccc2)c(C#N)c1-c1ccc(F)cc1	active: 13.1 µM	–
COc1ccc(-c2cc(C(=O)N3CCCC3)no2)cc1OC	inactive	–
Cc1cc(C)n(S(=O)(=O)c2cccc([N+](=O)[O-])c2)n1	inactive	–
CCOC(=O)C1NN=C(C(=O)c2ccccc2)C1c1ccccc1 (stereo unspecified)	inconclusive [inhibitor, single point]	–
CC1CC(C)CN(C(=O)c2cccc(N3C(=O)c4ccccc4C3=O)c2)C1 (stereo unspecified)	inactive	–
CCCOC(=O)c1ccc(-c2c(C)noc2-c2ccc(OC)cc2O)o1	active: 0.738 µM	–

SMILES	Potency	activity change, negative = inhibition
CCN(CC)C(=O)COc1ccc2c3c(c(=O)oc2c1)CCCC3	inconclusive [inhibitor, single point]	–
Cc1nnsc1Sc1ccccn1	inactive	–
CC(=O)c1ccc(NC(=O)CNc2cc(S(=O)(=O)N3CCOCC3)ccc2N2CCCC2)cc1	inconclusive [inhibitor, partial curve, poor fit]	–
O=C(Nc1ccc2oc(-c3cccnc3)nc2c1)c1ccc2c(c1)OCCO2	active: 8.28 µM	–
O=C(Cc1ccccc1)NC(c1ccco1)c1c(O)ccc2ccccc12 (stereo unspecified)	inconclusive [inhibitor, single point]	–
COc1cccc2c1C(=O)c1c(O)c3c(c(O)c1C2=O)C[C@@](O)(C(=O)CO)C[C@@H]3O[C@H]1C[C@H](N)[C@H](OC2CCCCO2)[C@H](C)O1 (stereo partly specified)	active: 3.79 µM	–
CN(C)CCCN(C(=O)COc1ccccc1)c1nc2cc3c(cc2s1)OCO3	inconclusive [inhibitor, full curve, poor fit]	–
Cc1ccc(C)c(NS(=O)(=O)c2c(C)[nH]c(C)c2C(=O)N2CCCCC2)c1	inactive	–
CC(C(=O)N1CCc2ccccc21)N1CCN(S(=O)(=O)c2ccc(C(F)(F)F)cc2)CC1 (stereo unspecified)	inconclusive [inhibitor, single point]	–
O=C(Nc1cccc(-c2cnc3ccccc3n2)c1)c1ccc(Cl)cc1	inconclusive [inhibitor, full curve, poor fit]	–
Cc1cccc(Cn2nc(C(C)(C)C)cc2C(=O)Nc2ccc(F)cc2)c1	active: 10.4 µM	–
c1ccc(N2CCN(c3nnc(Cc4cccnc4)c4ccccc34)CC2)nc1	active: 7.38 µM	–
C=C1SC(Nc2c(C)cc(C)cc2C)=NC12CCCCC2	active: 1.65 µM	–
C=CCc1cc(Cl)ccc1OCCCNC(C)CC (stereo unspecified)	inconclusive [inhibitor, single point]	–
COc1ccc(-n2ncc(C(=O)NC3CC3)c2C2CCN(C(=O)OC(C)(C)C)CC2)cc1	inconclusive [inhibitor, partial curve]	–
NS(=O)(=O)c1ccc(-c2ccc(C=O)o2)cc1	inactive	–
COc1ccc2nc(-c3ccccc3)nc(SCC(=O)NCC3CCCO3)c2c1 (stereo unspecified)	inconclusive [inhibitor, full curve]	–
O=C(NCCc1nc2ccccc2[nH]1)c1cc([N+](=O)[O-])cc([N+](=O)[O-])c1	active: 4.65 µM	–
CN1CCN(c2nc3ccccn3c(=O)c2/C=C(\C#N)S(=O)(=O)c2ccc(Cl)cc2)CC1	inactive	–
COC(=O)N1C(=O)[C@@](c2ccccc2)(C2CCCCC2)N1C(=O)OC	inactive	–
CCOC(=O)/C(C#N)=C/C1=C(N2CCOCC2)CC(C)(C)OC1	inactive	–
COc1ccc(C2=NOC(C(=O)Nc3ccc4c(c3)OCCO4)C2)c(OC)c1 (stereo unspecified)	inconclusive [inhibitor, partial curve, poor fit]	–
COc1ccc(CCN2CC(C(=O)NCc3c(C)n[nH]c3C)CCC2=O)cc1 (stereo unspecified)	inactive	–
Cc1ccc(C(=O)O/N=C(\N)c2ccccc2)c(Cl)c1	inactive	–

SMILES	Potency	activity change, negative = inhibition
Cc1oc2c(C)c3oc(=O)c(CCC(=O)NCCCn4ccnc4)c(C)c3cc2c1C	active: 13.1 µM	–
O=C(NNC(=S)Nc1ccc(Cl)cc1)c1ccccc1OC(F)F	inconclusive [inhibitor, single point]	–
CCc1noc(C)c1C(=O)N1CCSC1=Nc1cccc(Cl)c1C	inconclusive [inhibitor, single point]	–
Cc1ccc(/C=C2\C(=O)NC(=S)N(c3ccc(F)cc3)C2=O)s1	inactive	–
CC(C)CC(c1nnnn1CC1CCCO1)N1CCN(c2nc3ccccc3s2)CC1 (stereo unspecified)	inconclusive [inhibitor, single point]	–
Cc1ccc(C(=O)OCC(=O)c2c[nH]c3ccccc23)cc1S(=O)(=O)N1CCCCC1	inconclusive [inhibitor, single point]	–
CCc1cc(=O)oc2cc(C)cc(OCC(=O)N3CCC(C(=O)O)(c4ccccc4)CC3)c12	inconclusive [inhibitor, single point]	–
O=C(c1ccccc1)c1nn(-c2ccc(Cl)cc2)c(=O)cc1C(F)(F)F	inconclusive [inhibitor, partial curve, poor fit]	–
CCOc1ccc(-c2noc(CCC(=O)NCC3CCCO3)n2)cc1OC (stereo unspecified)	inactive	–
COc1ccc2[nH]cc(CCNC(=O)COc3cc(C)cc4oc(=O)cc(C)c34)c2c1	inconclusive [inhibitor, partial curve]	–
CCOC(=O)c1cnc(-n2nc(C)cc2C)nc1NC1CCCC1	active: 1.47 µM	–
O=C(NCC(c1ccco1)N1CCc2ccccc21)c1ccccc1Br (stereo unspecified)	inconclusive [inhibitor, single point]	–
COc1cc2c(c(OC)c1OC)-c1c(cc3c(c1OC)OCO3)C1OC2[C@@H](C)[C@H]1C (stereo partly specified)	inconclusive [inhibitor, single point]	–
COc1ccc(C(=O)Nc2ncc(C)s2)cc1S(=O)(=O)N1CCOCC1	inactive	–
c1ccc2c(c1)Sc1ccccc1-n1cnnc1-2	inconclusive [inhibitor, single point]	–
O=C(COC(=O)c1cccc(S(=O)(=O)N2CCN(c3ccccc3)CC2)c1)NCc1ccco1	inconclusive [inhibitor, full curve, poor fit]	–
CCN(CC)c1nc(N)c2c(N)nc3c(c2c1C#N)CC(c1ccccc1)O3 (stereo unspecified)	active: 2.33 µM	–
O=C(CCc1nc2ccccc2c(=O)[nH]1)N1CCN(S(=O)(=O)c2ccccc2Br)CC1	inconclusive [inhibitor, single point]	–
COc1ccccc1Nc1nc(C)c(C(=O)Nc2ccccc2)s1	inconclusive [inhibitor, partial curve]	–
CCn1c(CNC(=O)c2cccs2)nnc1SCC(=O)NCCc1ccccc1	inconclusive [inhibitor, partial curve]	–
O=C(N[C@@H](Cc1ccccc1)C(=O)N1CCN(S(=O)(=O)c2cccc(F)c2)CC1)c1ccco1	inconclusive [inhibitor, single point]	–
CCN1CCc2c(C#N)c(N3CCCCC3)nc(N3CCOCC3)c2C1	inconclusive [inhibitor, single point]	–
CC(C)(C)c1[nH]nc2c1C(c1ccccc1OC(=O)N1CCOCC1)C(C#N)=C(N)O2 (stereo unspecified)	inconclusive [inhibitor, full curve, poor fit]	–
